The text below walks through data of US20260184782A1 (TWIST BIOSCIENCE, published 2026).

In test [1] the target is T1, TIGIT (UniProt Q495A1 22-141, limits assumed).
T1 construct: construct not described; also called T cell immunoreceptor with Ig and ITIM domains
T1 sequence (looked up): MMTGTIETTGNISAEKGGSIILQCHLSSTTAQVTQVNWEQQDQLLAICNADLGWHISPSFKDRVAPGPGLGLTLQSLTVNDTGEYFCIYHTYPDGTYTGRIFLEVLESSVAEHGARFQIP
The experiment in a line: ELISA.

Test [2] has as its target T1, TIGIT. The experiment in a line: Carterra SPR, VHH-Fc.

B1: TIGIT-29-14 VHH-Fc (Fc fusion)
chain: EVQLVESGGGLVQAGGSLRLSCAASGFTFSDYVMGWFRQAPGKEREFVSAISWSGTNTNYADSVKGRFTISADNAKNTVYLQMNSLKPEDTAVYYCATRALRDGRGYWGQGTQVTVSSGGGGS[in this place human IgG1 Fc with C220S (EU numbers)]
For orientation: Kd means the concentration at which binding is half-saturated. The koff is the first-order rate constant of dissociation. Lower therefore signals slow dissociation. For orientation: kon means the rate constant with which the complex forms. A higher kon goes with faster complex formation. The molecule B1 gave an ELISA with TIGIT [1] of 5.2. Further, in the test with TIGIT [2], the Kd was determined as 231 nM, the koff was 0.057 s⁻¹ and the kon stood at 250000 M⁻¹ s⁻¹.

B2: TIGIT-30-6 VHH-Fc (Fc fusion)
chain: EVQLVESGGGLVQAGGSLRLSCAASGRFSRINSMGWFRQAPGKERELVAHIFRSGITSYASYADSVKGRFTISADNAKNTVYLQMNSLKPEDTAVYYCAIGRGSWGQGTQVTVSSGGGGS[in this place human IgG1 Fc with C220S (EU numbers)]
Take B2: in the test with TIGIT [1], the ELISA was 3.8. In the test with TIGIT [2], this molecule gave a Kd of 567 nM, a koff of 0.0087 s⁻¹ and an association rate constant (kon) of 15000 M⁻¹ s⁻¹.

B3: TIGIT-29-20 VHH-Fc (Fc fusion)
chain: EVQLVESGGGLVQAGGSLRLSCAASGSTFSIYAMGWFRQAPGKERELVASISWSGDTTNYADSVKGRFTISADNAKNTVYLQMNSLKPEDTAVYYCAAGSVYGRNSWGQGTQVTVTSGGGGS[in this place human IgG1 Fc with C220S (EU numbers)]
In turn, B3 yielded an ELISA with TIGIT [1] of 5.9. Besides, in the test with TIGIT [2], the Kd is 83 nM, the koff stood at 83 s⁻¹ and the kon was 1e+09 M⁻¹ s⁻¹.

B4: TIGIT-30-38 VHH-Fc (Fc fusion)
chain: EVQLVESGGGLVQAGGSLRLSCAASGSIASFNAMGWFRQAPGKEREWVSSVYIFGGSTYYADSVKGRFTISADNAKNTVYLQMNSLKPEDTAVYYCANSNKPKFDWGQGTQVTVSSGGGGS[in this place human IgG1 Fc with C220S (EU numbers)]
In turn, B4 yielded an ELISA with TIGIT [1] of 3.9. Further, in the test with TIGIT [2], binding was characterised by a dissociation constant (Kd) of 360 nM, the koff was 92 s⁻¹ and the kon amounted to 2.6e+08 M⁻¹ s⁻¹.

B5: TIGIT-30-11 VHH-Fc (Fc fusion)
chain: EVQLVESGGGLVQAGGSLRLSCAASGSITSIRSMGWFRQAPGKEREWVSSVYIFGGSTYYADSVKGRFTISADNAKNTVYLQMNSLKPEDTAVYYCANSNKPKFDWGQGTQVTVSSGGGGS[in this place human IgG1 Fc with C220S (EU numbers)]
With B5, the ELISA in the test with TIGIT [1] turned out to be 7.2. In the test with TIGIT [2], the affinity, expressed as Kd, was 221 nM; the koff is 0.056 s⁻¹; the kon is 250000 M⁻¹ s⁻¹.

B6: TIGIT-30-10 VHH-Fc (Fc fusion)
chain: EVQLVESGGGLVQAGGSLRLSCAASVRTFSLSDMGWFRQAPGKEREFVGAINWLSESTYYADSVKGRFTISADNAKNTVYLQMNSLKPEDTAVYYCAAQGGVLSGWDWGQGTQVTVSSGGGGS[in this place human IgG1 Fc with C220S (EU numbers)]
Molecule B6 gave an ELISA with TIGIT [1] of 4.2. In the test with TIGIT [2], this molecule returned a Kd of 336 nM, a koff of 0.039 s⁻¹ and a kon of 120000 M⁻¹ s⁻¹.

B7: TIGIT-30-51 VHH-Fc (Fc fusion)
chain: EVQLVESGGGLVQAGGSLRLSCAASGSIFSISDMGWFRQAPGKEREFVGAINWLSESTYYADSVKGRFTISADNAKNTVYLQMNSLKPEDTAVYYCAAQGGVLSGWDWGQGTQVTVSSGGGGS[in this place human IgG1 Fc with C220S (EU numbers)]
B7 came in with an ELISA in the test with TIGIT [1] of 3.4. In the test with TIGIT [2], this molecule came in with a dissociation constant Kd of 897 nM, a dissociation rate constant (koff) of 890 s⁻¹ and a kon of 9.9e+08 M⁻¹ s⁻¹.

B8: TIGIT-29-22 VHH-Fc (Fc fusion)
chain: EVQLVESGGGLVQAGGSLRLSCAASGSILSSYTMGWFRQAPGKEREFVSTISRSSTRTYYADSVKGRFTISADNAKNTVYLQMNSLKPEDTAVYYCAARLWGTWTAGDYDYWGQGTQVTVSSGGGGS[in this place human IgG1 Fc with C220S (EU numbers)]
As to B8, the ELISA with TIGIT [1] worked out at 3.4. Further, in the test with TIGIT [2], the affinity, expressed as Kd, was 65 nM; the off-rate (koff) worked out at 0.019 s⁻¹; the kon amounted to 290000 M⁻¹ s⁻¹.

B9: TIGIT-29-42 VHH-Fc (Fc fusion)
chain: EVQLVESGGGLVQAGGSLRLSCAASGSTFSTYAMGWFRQAPGKEREFVATISTSSSRTYYADSVKGRFTISADNAKNTVYLQMNSLKPEDTAVYYCAARLWGTWTAGDYDYWGQGTQVTVSLGGGGS[in this place human IgG1 Fc with C220S (EU numbers)]
Regarding B9, in the test with TIGIT [1], the ELISA came to 10. In the test with TIGIT [2], this molecule displayed a Kd of 114 nM, a dissociation rate constant (koff) of 66 s⁻¹ and an association rate constant (kon) of 5.8e+08 M⁻¹ s⁻¹.

B10: TIGIT-29-34 VHH-Fc (Fc fusion)
chain: EVQLVESGGGLVQAGGSLRLSCAASGFTFRNYAMGWFRQAPGKEREFVSSISSSSSRTSYADSVKGRFTISADNAKNTVYLQMNSLKPEDTAVYYCAARLWGTWTAGDYDYWGQGTQVTVSSGGGGS[in this place human IgG1 Fc with C220S (EU numbers)]
Consider B10, for which, in the test with TIGIT [1], the ELISA came to 8.6. In the test with TIGIT [2], this molecule came in with a Kd of 80 nM, a koff of 13 s⁻¹ and a kon of 1.6e+08 M⁻¹ s⁻¹.

B11: TIGIT-30-5 VHH-Fc (Fc fusion)
chain: EVQLVESGGGLVQAGGSLRLSCAASGGTFRNYGMGWFRQAPGKERELVAAISWSGVSTIYADSVKGRFTISADNAKNTVYLQMNSLKPEDTAVYYCASSPYGPLYRSTHYYDWGQGTQVTVSSGGGGS[in this place human IgG1 Fc with C220S (EU numbers)]
Molecule B11 came in with an ELISA in the test with TIGIT [1] of 9.3. The molecule also gave a Kd with TIGIT [2] of 100 nM.

B12: TIGIT-30-9 VHH-Fc (Fc fusion)
chain: EVQLVESGGGLVQAGGSLRLSCAASGPISGINRMGWFRQAPGKEREWVSTITFNGDHTYYADSVKGRFTISADNAKNTVYLQMNSLKPEDTAVYYCAARPYTRPGSMWVSSLYDWGQGTQVTVSSGGGGS[in this place human IgG1 Fc with C220S (EU numbers)]
Turning to B12, in the test with TIGIT [1], the ELISA worked out at 8. Also, in the test with TIGIT [2], the Kd was 79 nM, the koff came to 0.011 s⁻¹ and the kon amounted to 130000 M⁻¹ s⁻¹.

B13: TIGIT-30-49 VHH-Fc (Fc fusion)
chain: EVQLVESGGGLVQAGGSLRLSCAASGNIFSRYIMGWFRQAPGKEREWVAGISNGGTTKYADSVKGRFTISADNAKNTVYLQMNSLKPEDTAVYYCAQGWKIVPTNWGQGTQVTVSSGGGGS[in this place human IgG1 Fc with C220S (EU numbers)]
The molecule B13 registered an ELISA in the test with TIGIT [1] of 10.3. Moreover, in the test with TIGIT [2], the dissociation constant Kd stood at 62 nM, the koff came out at 18 s⁻¹ and the kon is 3e+08 M⁻¹ s⁻¹.

B14: TIGIT-30-24 VHH-Fc (Fc fusion)
chain: EVQLVESGGGLVQAGGSLRLSCAASGNIFSRYIMGWFRQAPGKEREWVAGISNGGTTKYADSVKGRFTISADNAKNTVYLQMNSLKPEDTAVYYCAQGWKIIPTDWGQGTQVTVSSGGGGS[in this place human IgG1 Fc with C220S (EU numbers)]
As to B14, the ELISA with TIGIT [1] was determined as 5.3. In the test with TIGIT [2], this molecule had a Kd of 133 nM, a koff of 76 s⁻¹ and a kon of 5.7e+08 M⁻¹ s⁻¹.

B15: TIGIT-30-34 VHH-Fc (Fc fusion)
chain: EVQLVESGGGLVQAGGSLRLSCAASGNIFSRYIMGWFRQAPGKEREWVAGISSGGTTKYADSVKGRFTISADNAKNTVYLQMNSLKPEDTAVYYCAQGWKIVPTNWGQGTQVTVSSGGGGS[in this place human IgG1 Fc with C220S (EU numbers)]
As to B15, the ELISA in the test with TIGIT [1] amounted to 7.2. Moreover, in the test with TIGIT [2], the Kd worked out at 130 nM, the koff turned out to be 64 s⁻¹ and the kon came to 4.9e+08 M⁻¹ s⁻¹.

B16: TIGIT-30-03 VHH-Fc (Fc fusion)
chain: EVQLVESGGGLVQAGGSLRLSCAASGNIFSRYIMGWFRQAPGKEREWVAGISNGGTTKYADSVKGRFTISADNAKNTVYLQMNSLKPEDTAVYYCAQGWKIRPTIWGQGTQVTVSSGGGGS[in this place human IgG1 Fc with C220S (EU numbers)]
In the test with TIGIT [1], B16 registered an ELISA of 4.3. In the test with TIGIT [2], this molecule registered a Kd of 273 nM, a koff of 270 s⁻¹ and a kon of 1e+09 M⁻¹ s⁻¹.

B17: TIGIT-30-7 VHH-Fc (Fc fusion)
chain: EVQLVESGGGLVQAGGSLRLSCAASGIPASIRTMGWFRQAPGKEREGISLITSDDGSTYYADSVKGRFTISADNAKNTVYLQMNSLKPEDTAVYYCAWTTNRGMDWGQGTQVTVSSGGGGS[in this place human IgG1 Fc with C220S (EU numbers)]
In turn, B17 yielded an ELISA in the test with TIGIT [1] of 3.1. In the test with TIGIT [2], this molecule gave a Kd of 285 nM, a koff of 0.099 s⁻¹ and a kon of 350000 M⁻¹ s⁻¹.

B18: TIGIT-30-32 VHH-Fc (Fc fusion)
chain: EVQLVESGGGLVQAGGSLRLSCAASGIIGTIRTMGWFRQAPGKEREGISLITSDDGSTYYADSVKGRFTISADNAKNTVYLQMNSLKPEDTAVYYCAWTTNRGMDWGQGTQVTVSSGGGGS[in this place human IgG1 Fc with C220S (EU numbers)]
B18 registered an ELISA with TIGIT [1] of 6. Also, in the test with TIGIT [2], binding was put at a Kd of 207 nM, the koff came to 0.06 s⁻¹ and the kon is 290000 M⁻¹ s⁻¹.

B19: TIGIT-30-18 VHH-Fc (Fc fusion)
chain: EVQLVESGGGLVQAGGSLRLSCAASGRAFSLRTMGWFRQAPGKEREGISLITSDDGSTYYADSVKGRFTISADNAKNTVYLQMNSLKPEDTAVYYCAWTTNRGMDWGQGTQVTVSSGGGGS[in this place human IgG1 Fc with C220S (EU numbers)]
In the test with TIGIT [1], B19 showed an ELISA of 4.1. Moreover, in the test with TIGIT [2], the Kd was found to be 741 nM, the koff was determined as 0.068 s⁻¹ and the kon amounted to 92000 M⁻¹ s⁻¹.
